The text below walks through data of paper PMC3517537.

By UniProt entry, the sequences of proteins in these tests, tags left out.
UniProt Q15691: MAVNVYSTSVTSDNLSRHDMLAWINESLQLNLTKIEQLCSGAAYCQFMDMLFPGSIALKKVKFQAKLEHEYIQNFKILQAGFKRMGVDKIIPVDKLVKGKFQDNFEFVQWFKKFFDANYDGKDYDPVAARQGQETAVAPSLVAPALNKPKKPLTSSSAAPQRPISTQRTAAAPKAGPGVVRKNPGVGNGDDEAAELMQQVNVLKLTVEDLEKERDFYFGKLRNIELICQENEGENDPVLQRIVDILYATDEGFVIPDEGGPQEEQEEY

First the molecules themselves.
B1: in vitro translated 35S-labeled GTSE1 WT (protein, UniProt Q9NYZ3 1-739)
chain: MEGGGGRDEPSACRAGDVNMDDPKKEDILLLADEKFDFDLSLSSSSANEDDEVFFGPFGHKERCIAASLELNNPVPEQPPLPTSESPFAWSPLAGEKFVEVYKEAHLLALHIESSSRNQAAQAAKPEDPRSQGVERFIQESKLKINLFEKEKEMKKSPTSLKRETYYLSDSPLLGPPVGEPRLLASSPALPSSGAQARLTRAPGPPHSAHALPRESCTAHAASQAATQRKPGTKLLLPRAASVRGRSIPGAAEKPKKEIPASPSRTKIPAEKESHRDVLPDKPAPGAVNVPAAGSHLGQGKRAIPVPNKLGLKKTLLKAPGSTSNLARKSSSGPVWSGASSACTSPAVGKAKSSEFASIPANSSRPLSNISKSGRMGPAMLRPALPAGPVGASSWQAKRVDVSELAAEQLTAPPSASPTQPQTPEGGGQWLNSSCAWSESSQLNKTRSIRRRDSCLNSKTKVMPTPTNQFKIPKFSIGDSPDSSTPKLSRAQRPQSCTSVGRVTVHSTPVRRSSGPAPQSLLSAWRVSALPTPASRRCSGLPPMTPKTMPRAVGSPLCVPARRRSSEPRKNSAMRTEPTRESNRKTDSRLVDVSPDRGSPPSRVPQALNFSPEESDSTFSKSTATEVAREEAKPGGDAAPSEALLVDIKLEPLAVTPDAASQPLIDLPLIDFCDTPEAHVAVGSESRPLIDLMTNTPDMNKNVAKPSPVVGQLIDLSSPLIQLSPEADKENVDSPLLKF
modifications: 35S-labeled
B2: in vitro translated 35S-labeled GTSE1 mutated at the SKIP motifs (L511N P512N L522N P523N) (protein, UniProt Q9NYZ3 1-739)
chain: MEGGGGRDEPSACRAGDVNMDDPKKEDILLLADEKFDFDLSLSSSSANEDDEVFFGPFGHKERCIAASLELNNPVPEQPPLPTSESPFAWSPLAGEKFVEVYKEAHLLALHIESSSRNQAAQAAKPEDPRSQGVERFIQESKLKINLFEKEKEMKKSPTSLKRETYYLSDSPLLGPPVGEPRLLASSPALPSSGAQARLTRAPGPPHSAHALPRESCTAHAASQAATQRKPGTKLLLPRAASVRGRSIPGAAEKPKKEIPASPSRTKIPAEKESHRDVLPDKPAPGAVNVPAAGSHLGQGKRAIPVPNKLGLKKTLLKAPGSTSNLARKSSSGPVWSGASSACTSPAVGKAKSSEFASIPANSSRPLSNISKSGRMGPAMLRPALPAGPVGASSWQAKRVDVSELAAEQLTAPPSASPTQPQTPEGGGQWLNSSCAWSESSQLNKTRSIRRRDSCLNSKTKVMPTPTNQFKIPKFSIGDSPDSSTPKLSRAQRPQSCTSVGRVTVHSTPVRRSSGPAPQSLLSAWRVSANNTPASRRCSGNNPMTPKTMPRAVGSPLCVPARRRSSEPRKNSAMRTEPTRESNRKTDSRLVDVSPDRGSPPSRVPQALNFSPEESDSTFSKSTATEVAREEAKPGGDAAPSEALLVDIKLEPLAVTPDAASQPLIDLPLIDFCDTPEAHVAVGSESRPLIDLMTNTPDMNKNVAKPSPVVGQLIDLSSPLIQLSPEADKENVDSPLLKF
modifications: 35S-labeled
B3: in vitro translated 35S-labeled murine GTSE1 (protein, UniProt Q8R080 1-741)
chain: MDAGSKKEDFLLLEDEKFDFDLSLSSSSTNEDDEVFFGPVGHKERCIAASLDLNRRVPGQPLAPGSGSPCTLSPLTGEKFVEVYKEAHLLALQIESHSRREVAQAATPQNPVNQGKETFVQDSQLKVSLFEKEQKRDRSPMSLKRETFCLPSSRVQPPMGEPQLLASPGLLSSPVSAGPAQTQSNQGLPCSSQPLPRESSTSQPPSQAGPQKRITSKLQPPRALPVRGRNLHLATEKLKKEVPASIQRTKLVNEKGSQSDVLQDKPSTAPDAASREGHPGKRSLPIPGKLGLKKTLLKPPGYTGNLTRKSSTSGSASSLESGVYRSSVAGKAKSSEQRSSIPASGSQRRTSTSKSGRIGPAASRQALPAAPARVFGRQANKADAAQTVAEQPKVPTLSPLTQQPQTPEQRGPRLDPDTETPQLNKTVSIKRRDSYLSCKTEAVSTTTNPFKVPQFSVGESPGGVTPKFSRTHRLQSWTPASRVVSSTPVRRSSGTTPQGLPGSMRTPLSTRRMSVLPTPASRRLSSLPLMAPQSMPRALVSPLCVPARRLSSEPRRRSTVRAELTQESSGSGSGGQAQGLSSDESSSPPSSVPQALNFSPEKSASPPPQGSSTGAAQGEAEPPEDTLPSEVHGGGCSHTPSEGLLLDLKLDQLTITPEAGGRDLADCPLIDFSNTPESNTALGPSSWPLIDLIMNTPDMGRNDVGKPAKAELGQLIDLGSPLIQLSPEADKENVDSPLLKF
modifications: 35S-labeled

No constants are given. Whether binding was seen depends on the method and setting. Binding seen in cells or lysates may run through a third protein. Some binding calls cover weakened binding; strength is not graded here.

The target of the assay is GST-EB1 fusion protein (pGEX (6p-2)-EB1) (UniProt Q15691). Nature of the assay: pull-down; purified GST, GST-hGTSE1 or GST-EB1 immobilised on glutathione-Sepharose 4B beads, incubated with 35S-labeled in vitro translated proteins in 150 mM NaCl, 20 mM Hepes pH 7.5, 0.05% NP-40, 10% glycerol; autoradiography; only the target purified.
Take B1: the binding entry is “binds”.

Take B2: the binding entry is “no binding”.

On to B3, for which the binding entry is on record as “binds”.
